Assay results as given in PMC3797442, “Analysis of the role of Arabidopsis class I TCP genes AtTCP7, AtTCP8, AtTCP22, and AtTCP23 in leaf development”.
Like-named read-outs stand apart in the source and are kept apart here. These are yes or no findings as the source states them, for the method shown. Some binding calls cover weakened binding; strength is not graded here.

Sequences of proteins named here, by UniProt entry; tags and fusion partners are left off.
UniProt Q9LQF0: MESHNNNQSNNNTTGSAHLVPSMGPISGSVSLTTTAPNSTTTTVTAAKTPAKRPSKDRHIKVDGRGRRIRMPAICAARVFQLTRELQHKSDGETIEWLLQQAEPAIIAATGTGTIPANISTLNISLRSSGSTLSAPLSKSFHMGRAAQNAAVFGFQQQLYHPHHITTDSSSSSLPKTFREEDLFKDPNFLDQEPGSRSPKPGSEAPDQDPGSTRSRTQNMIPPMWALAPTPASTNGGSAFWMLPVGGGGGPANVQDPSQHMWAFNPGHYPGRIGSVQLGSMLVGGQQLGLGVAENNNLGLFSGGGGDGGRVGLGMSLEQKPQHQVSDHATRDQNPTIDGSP
UniProt Q9FTA2: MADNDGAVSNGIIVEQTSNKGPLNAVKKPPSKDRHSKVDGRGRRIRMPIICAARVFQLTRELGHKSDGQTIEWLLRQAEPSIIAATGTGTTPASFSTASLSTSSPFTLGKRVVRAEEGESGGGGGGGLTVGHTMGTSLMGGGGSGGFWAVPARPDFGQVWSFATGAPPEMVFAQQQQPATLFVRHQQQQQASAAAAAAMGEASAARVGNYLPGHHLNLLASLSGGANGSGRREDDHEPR
UniProt Q9C518: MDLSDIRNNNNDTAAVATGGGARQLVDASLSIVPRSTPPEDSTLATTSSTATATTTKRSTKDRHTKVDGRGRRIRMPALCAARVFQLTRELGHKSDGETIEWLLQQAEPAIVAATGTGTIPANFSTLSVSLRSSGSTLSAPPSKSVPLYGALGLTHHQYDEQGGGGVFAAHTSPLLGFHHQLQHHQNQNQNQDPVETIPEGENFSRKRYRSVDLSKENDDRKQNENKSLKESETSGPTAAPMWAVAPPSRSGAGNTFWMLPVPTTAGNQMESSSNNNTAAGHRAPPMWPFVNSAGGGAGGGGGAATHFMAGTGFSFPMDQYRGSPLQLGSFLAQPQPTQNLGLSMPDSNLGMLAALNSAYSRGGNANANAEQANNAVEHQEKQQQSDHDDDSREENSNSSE
UniProt Q9FMX2: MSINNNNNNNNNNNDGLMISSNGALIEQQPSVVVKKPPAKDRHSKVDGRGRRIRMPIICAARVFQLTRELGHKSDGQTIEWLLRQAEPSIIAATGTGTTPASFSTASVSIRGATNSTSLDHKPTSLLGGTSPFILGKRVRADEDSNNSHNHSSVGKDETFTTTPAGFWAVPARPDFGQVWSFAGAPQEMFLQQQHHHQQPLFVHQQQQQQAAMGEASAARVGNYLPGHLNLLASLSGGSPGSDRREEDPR

B1: AtTCP3 (protein, UniProt Q9MAH8 1-391)
chain: MAPDNDHFLDSPSPPLLEMRHHQSATENGGGCGEIVEVQGGHIVRSTGRKDRHSKVCTAKGPRDRRVRLSAPTAIQFYDVQDRLGFDRPSKAVDWLITKAKSAIDDLAQLPPWNPADTLRQHAAAAANAKPRKTKTLISPPPPQPEETEHHRIGEEEDNESSFLPASMDSDSIADTIKSFFPVASTQQSYHHQPPSRGNTQNQDLLRLSLQSFQNGPPFPNQTEPALFSGQSNNQLAFDSSTASWEQSHQSPEFGKIQRLVSWNNVGAAESAGSTGGFVFASPSSLHPVYSQSQLLSQRGPLQSINTPMIRAWFDPHHHHHHHQQSMTTDDLHHHHPYHIPPGIHQSAIPGIAFASSGEFSGFRIPARFQGEQEEHGGDNKPSSASSDSRH

Key:
Test in all cases: two-hybrid; Gal4 DNA-binding domain baits (pGBKT7) and GAL4 activation domain preys (pGADT7) co-transformed into yeast strain AH109; β-galactosidase filter assay on -L-T-H-A + X-gal medium; graded +++ strong, ++ medium, + mild, − no interaction
[1] = molecular target: AtTCP15 (Arabidopsis thaliana) (UniProt Q9C9L2)
[2] = molecular target: T1, AtTCP2 (Arabidopsis thaliana) (UniProt Q93V43)
T1 sequence: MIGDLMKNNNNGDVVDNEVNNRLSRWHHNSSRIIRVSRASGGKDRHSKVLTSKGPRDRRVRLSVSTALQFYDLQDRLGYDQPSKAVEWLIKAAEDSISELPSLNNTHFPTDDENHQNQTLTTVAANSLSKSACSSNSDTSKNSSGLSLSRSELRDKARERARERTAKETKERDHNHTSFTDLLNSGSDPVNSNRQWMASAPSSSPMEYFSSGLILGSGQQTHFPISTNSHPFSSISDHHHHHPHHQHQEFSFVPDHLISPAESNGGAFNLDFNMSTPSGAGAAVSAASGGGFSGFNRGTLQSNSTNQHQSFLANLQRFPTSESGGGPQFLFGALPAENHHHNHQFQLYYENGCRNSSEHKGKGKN

[3] = molecular target: AtTCP23 (Arabidopsis thaliana) (UniProt Q9LQF0)
[4] = molecular target: AtTCP21 (Arabidopsis thaliana) (UniProt Q9FTA2)
[5] = molecular target: AtTCP8 (Arabidopsis thaliana) (UniProt Q9C518)
[6] = molecular target: AtTCP15 (Arabidopsis thaliana) (UniProt Q9C9L2); remark: listed apart in the source
[7] = molecular target: AtTCP21 (Arabidopsis thaliana) (UniProt Q9FTA2); remark: listed apart in the source
[8] = molecular target: AtTCP23 (Arabidopsis thaliana) (UniProt Q9LQF0); remark: listed apart in the source
[9] = molecular target: AtTCP8 (Arabidopsis thaliana) (UniProt Q9C518); remark: listed apart in the source

Row | Molecule | binding [1] | binding [2] | binding [3] | binding [4] | binding [5] | binding [6] | binding [7] | binding [8] | binding [9]
1 | AtTCP21 (from UniProt Q9FTA2 1-239) | no binding | no binding | no binding | – | – | – | – | – | –
2 | AtTCP7 (from UniProt Q9FMX2 1-250) | no binding | no binding | binds | binds weakly | binds weakly | – | – | – | –
3 | AtTCP8 (from UniProt Q9C518 1-401) | no binding | no binding | no binding | binds | – | – | – | – | –
4 | AtTCP15 (from UniProt Q9C9L2 1-325) | – | no binding | – | – | – | – | – | – | –
5 | AtTCP23 (from UniProt Q9LQF0 1-341) | no binding | no binding | – | – | – | – | – | – | –
6 | B1 | – | – | – | – | – | no binding | no binding | no binding | no binding
